Test results from the supplement of paper PMC12355420.
Structures can show the parent of a compound that is named as a salt. Some of the results follow. Repeats are few or missing, and single values can be far off.

tested on: HeLa VPS33A reporter cells; assay: relative cell viability (CellMask signal) vs DMSO (fraction of DMSO); HeLa model of a glycosaminoglycan (GAG) storage disease; KI is knock-in and KO knock-out; SDC1 is syndecan 1; higher = less cytotoxic; settings: 50 µM; 24 h
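Further: primary screen of an FDA-approved drug library in HeLa reporter cells in 96-well format, CellMask signal normalized to DMSO-treated wells set as 1, under 0.5 deemed highly cytotoxic.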

| Structure (SMILES) | relative cell viability |
| --- | --- |
| CCCCN(CCCC)CC(O)c1cc(Cl)cc2c1-c1ccc(Cl)cc1/C2=C/c1ccc(Cl)cc1 (stereo not given) [Lumefantrine] | 1.06 |
| CCC(=O)OCC(=O)[C@@]1(OC(=O)CC)[C@@H](C)C[C@H]2[C@@H]3CCC4=CC(=O)C=C[C@]4(C)[C@@]3(F)[C@@H](O)C[C@@]21C [Betamethasone Dipropionate] | 1.23 |
| O=[N+]([O-])c1cn2c(n1)OC[C@@H](OCc1ccc(OC(F)(F)F)cc1)C2 | 1.41 |
| COc1cc2c(cc1OC)CC(=O)N(CCCN(C)C[C@H]1Cc3cc(OC)c(OC)cc31)CC2 [Ivabradine HCl] | 1.2 |
| C[C@H](CS)C(=O)N1CCC[C@H]1C(=O)O [Captopril] | 1.05 |
| O=C(O)C1(C(=O)O)CCC1.[NH2-].[NH2-].[Pt+2] [Carboplatin] | 1.17 |
| Nc1nc2ccc(OC(F)(F)F)cc2s1 [Riluzole] | 0.877 |
| C=CCc1cc(OC)c(O)c(C(=O)NCCO)c1 [Alibendol] | 1.04 |
| N[C@@H](Cc1ccc(O)c(O)c1)C(=O)O [Levodopa] | 1.15 |
| Cc1cn([C@H]2C[C@H](N=[N+]=[N-])[C@@H](CO)O2)c(=O)[nH]c1=O [Zidovudine] | 1.07 |
| CC(C)(C#N)c1cc(Cn2cncn2)cc(C(C)(C)C#N)c1 [Anastrozole] | 1.17 |
| CNCc1ccc(-c2[nH]c3cc(F)cc4c3c2CCNC4=O)cc1 | 0.558 |
| CCOC(=O)C1=C(C)NC(C)=C(C(=O)OCC)C1c1ccccc1/C=C/C(=O)OC(C)(C)C [Lacidipine] | 1.15 |
| Cc1cc(=O)[nH]c(=S)[nH]1 [Methylthiouracil] | 0.969 |
| Cc1cn[nH]c1 [Fomepizole] | 1.13 |
| Nc1ccc(S(=O)(=O)Nc2nccs2)cc1 [Sulfathiazole] | 1.14 |
| COc1cccc(-c2ccc(NC(=O)C3=C(C(=O)O)CCC3)c(F)c2)c1 [Vidofludimus] | 1.08 |
| COc1cccc(OC)c1C(=O)N[C@@H]1C(=O)N2[C@@H]1SC(C)(C)[C@@H]2C(=O)O [Methicillin (sodium salt)] | 1.11 |
| O=C(O)Cc1cc(I)c(Oc2ccc(O)c(I)c2)c(I)c1 [Tiratricol] | 1.1 |
| COc1ncnc(NS(=O)(=O)c2ccc(N)cc2)c1OC [Sulfadoxin] | 1.09 |

| Structure (SMILES) | relative cell viability |
| --- | --- |
| O=C1CN(/N=C/c2ccc([N+](=O)[O-])o2)C(=O)N1 [Nitrofurantoin] | 1.09 |
| COc1ccc2[nH]c([S+]([O-])Cc3ncc(C)c(OC)c3C)nc2c1 (stereo not given) [Omeprazole] | 0.964 |
| NC[C@@H]1O[C@H](O[C@H]2[C@@H](O)[C@H](O[C@@H]3[C@@H](O)[C@H](N)C[C@H](N)[C@H]3O[C@H]3O[C@H](CN)[C@@H](O)[C@H](O)[C@H]3N)O[C@@H]2CO)[C@H](N)[C@@H](O)[C@@H]1O [Neomycin sulfate] | 0.89 |
| CCC(CC)[C@H](NC(C)=O)[C@@H]1[C@H](O)[C@@H](C(=O)O)C[C@H]1NC(=N)N [Peramivir Trihydrate] | 1.09 |
| CCCSc1ccc2[nH]c(NC(=O)OC)nc2c1 [Albendazole] | 0.535 |
| CCCc1ncc(C[n+]2ccccc2C)c(N)n1 [Amprolium HCl] | 1.09 |
| CC1CCc2cc(F)cc3c(=O)c(C(=O)O)cn1c23 (stereo not given) [Flumequine] | 0.979 |
| CC(COc1ccccc1)NC(C)C(O)c1ccc(O)cc1 (stereo not given) [Isoxsuprine (hydrochloride)] | 0.981 |
| CCOC(=O)[C@H](CCc1ccccc1)N[C@@H](C)C(=O)N1Cc2ccccc2C[C@H]1C(=O)O [Quinapril HCl] | 0.986 |
| C[C@H]1CN(C[C@H](Cc2ccccc2)C(=O)NCC(=O)O)CC[C@@]1(C)c1cccc(O)c1 [Alvimopan] | 1.05 |
| Nc1nc2c(ncn2COCCO)c(=O)[nH]1 [Acyclovir] | 1.38 |
| C1N2CN3CN1CN(C2)C3 [Methenamine] | 0.993 |
| COC(=O)N[C@H](C(=O)N1CC2(CC2)C[C@H]1c1nc(-c2ccc3c(c2)C(F)(F)c2cc(-c4ccc5[nH]c([C@@H]6[C@H]7CC[C@H](C7)N6C(=O)[C@@H](NC(=O)OC)C(C)C)nc5c4)ccc2-3)c[nH]1)C(C)C [Ledipasvir] | 0.577 |
| O=c1c(-c2ccc(O)cc2)coc2cc(O)ccc12 [Daidzein] | 1.08 |
| CC/C(=C(/CC)c1ccc(O)cc1)c1ccc(O)cc1 [Diethylstilbestrol] | 0.84 |
| Nc1ccc(C(=O)NCC(=O)O)cc1 [Sodium 4-amiropparaty Hyalrate] | 1.27 |
| CC(C[N+](C)(C)C)OC(N)=O (stereo not given) [Bethanechol chloride] | 1.09 |
| CC(C)n1c(/C=C/C(O)CC(O)CC(=O)O)c(-c2ccc(F)cc2)c2ccccc21 (stereo not given) [Fluvastatin Sodium] | 0.679 |
| CCOC(=O)[C@H](CCc1ccccc1)N[C@H]1CS[C@H](c2cccs2)CN(CC(=O)O)C1=O [Temocapril HCl] | 0.957 |
| CNC(=O)c1cc(Oc2ccc(NC(=O)Nc3ccc(Cl)c(C(F)(F)F)c3)c(F)c2)ccn1 [Regorafenib hydrochloride] | 1.06 |
